This note sets out measurements from US9803013B2, “Biological materials and uses thereof” (BioInvent International AB, priority 2005, dated 2017).

Design in all cases: species or system human
In one assay the test system is HLA-DR. The assay is described as follows: Radioiodinated IgG B1 binding to Raji cells, Rosenthal-Scatchard analysis. The method, then: Iodination of 1 mg/ml of IgG1 B1 or IgG1 B11 proteins with [^125I] NaI was performed in PBS for 10 min using Iodogen pre-coated iodination tubes (Pierce). Free [^125I] NaI was removed by desalting on PD-10 columns (Amersham Biosciences), yielding specific radioactivities in the range of 1000-1600 cpm per ng protein. [^125I] IgG1 B1 and [^125I] IgG1 B11 was used for determination of antibody affinities.
Radioiodinated IgG B1 or IgG B11 was incubated with B lymphoma cells in DPBS-B-hIgG (DPBS-B containing 0.2 mg/ml human IgG) for 2 h on ice with intermittent mixing. Non-specific binding was determined in the presence of 0.2 mg/ml unlabelled IgG B1 or IgG B11 protein, as appropriate. […]
Cells were loaded on top 40% v/v Ficoll/DPBS-B cushions in individual tubes and were centrifuged at 400×g for 6 min at 4° C. […] Cell pellets and cell supernatants were isolated and analysed separately for ^125I-IgG protein content in a gamma counter, following cutting of the tubes in half.
Antibody affinity constants (Kd values) and epitope numbers per cell were determined from Scatchard plot analysis according to Rosenthal et al. (Anal. Biochem. (1967) 20:525-532); Bylund and Yamamura (Methods in Neurotransmitter Analysed, New York: Raven Press Ltd., 1990); and Marquardt (J. Soc. Indust. Appl. Math. (1963) 11:431-441), as previously described (Brix et al., J. Clin. Invest. (1998) 102:283-293). […]

A further assay relates to MC/CAR. The assay is described as follows: IgG binding to multiple myeloma cell line, flow cytometry MFI. Conditions: control FITC-8 IgG MFI subtracted. The method, then:
(§1) • ^aApoptosis Induction; determined by percentage of viable cells after 6 hour incubation with any of the human antibodies, crosslinked with Goat anti-Human (gamma) Fc specific antibody; −, viability not affected; +, 95-80%; ++, 79-60%; +++, 59-40% viable cells compared to control (human FITC-8 IgG1). […] The cell line dependent MFI value of control human FITC-8 IgG antibody was subtracted from the MFI of each human antibody.
Background: Flow cytometry measures light scatter and fluorescence of single cells or particles in a stream.

For a further assay, the system named is RL. Description: IgG binding to B lymphoma cell line, flow cytometry MFI. The settings on record: Follicular Lymphoma, control FITC-8 IgG MFI subtracted. On the procedure: as §1
Another assay deals with Jeko-1. The assay is described as above. The settings on record: Jeko-1, Mantle cell Lymphoma; control FITC-8 IgG MFI subtracted. On the procedure: as §1
The next assay concerns BJAB. The description is as above. Conditions: Burkitt's Lymphoma, control FITC-8 IgG MFI subtracted. On the procedure: as §1
The test system of a further assay is Granta 519. Described as above. The settings on record: Granta 519, Mantle cell Lymphoma; control FITC-8 IgG MFI subtracted. On the procedure: as §1
In another assay the test system is WSU-NHL. The description is as above. Conditions: Follicular Lymphoma, control FITC-8 IgG MFI subtracted. On the procedure: as §1
The subject of a further assay is DOHH-2. Described as above. Conditions: DOHH-2, Follicular Lymphoma; control FITC-8 IgG MFI subtracted. The method, then:
as §1

The next assay relates to CL-01. Described as above. Conditions: CL-01, Burkitt's Lymphoma; control FITC-8 IgG MFI subtracted. On the procedure:
as §1

The next assay deals with SP-53. Described as above. The settings on record: SP-53, Mantle cell Lymphoma; control FITC-8 IgG MFI subtracted. On the procedure: as §1
The subject of a further assay is SC-1. Described as above. Conditions: SC-1, Follicular Lymphoma; control FITC-8 IgG MFI subtracted. The method, then: as §1
Another assay has as its system Ramos. The description is as above. Conditions: Burkitt's Lymphoma, control FITC-8 IgG MFI subtracted. On the procedure:
as §1

A further assay has as its system Daudi. Described as above. Conditions: Burkitt's Lymphoma, control FITC-8 IgG MFI subtracted. The method, then: as §1
A further assay concerns NCEB-1. The description is as above. Conditions: NCEB-1, Mantle cell Lymphoma; control FITC-8 IgG MFI subtracted. On the procedure: as §1
A further assay relates to JVM-2. The assay is described as above. The settings on record: JVM-2, Mantle cell Lymphoma; control FITC-8 IgG MFI subtracted. The method, then: as §1
Another assay relates to Raji. The description is as above. Conditions: Burkitt's Lymphoma, control FITC-8 IgG MFI subtracted. The method, then: as §1
In a further assay the test system is Rec-1. The assay is described as above. Conditions: Rec-1, Mantle cell Lymphoma; control FITC-8 IgG MFI subtracted. The method, then: as §1

B1: B1: fully human IgG1 antibody specific for HLA-DR/DP; VH and VL sequences of FIG. 9 (SEQ ID NOs. 2 and 4) (antibody, listed as Homo sapiens, V domains shown)
VH: [about 100 residues left out here]DGLLPLDYWGQGTLVTVSS
VL: QSVLTQPPSASGTPGQRVTISCSGGSSNIGGNAVNWYQQLPGTAPKLLIYENNKRPSGVPDRFSGSKSGTSASLAISGLRSEDEADYYCSSYAVSNNFEVLFGGGTKLTVLG
Take B1: in the assay with HLA-DR (Rosenthal-Scatchard plot, bivalent epitope-IgG interaction assumed, read-out: dissociation constant), the Kd is approximately 3 nM. The “concentration at which saturable specific binding is reached” value with HLA-DR (radioiodinated IgG, 4° C) is given as approximately 30 nM. The MFI in the assay with MC/CAR stood at 290; with RL, 50; with Jeko-1 it was 1000; in the assay with BJAB it was 530; in the assay with Granta 519, 370; in the assay on WSU-NHL it was 280. Moreover, the MFI in the assay on DOHH-2 was determined as 140; in the assay on CL-01, 940; with SP-53, 500; in the assay with SC-1 it was 170; in the assay with Ramos, 125; with Daudi, 200. Further, the MFI was determined as 750 with NCEB-1, 650 in the assay on JVM-2, 550 in the assay with Raji and 0 with Rec-1.
